The supplement of paper PMC7238544
Where a name gives a salt, the structure may show the parent alone. ± gives the standard deviation of the averaged measurements. Some of the results follow.

Tests used:
Settings in all cases: priming compound concentration 100 µM
[1] = system: hAMSC donor 1; assay: Hoechst total cell count ratio vs vehicle control; higher = more cells (less toxicity)
[2] = system: hAMSC donor 2; assay: as above
[3] = system: hAMSC donor 1; assay: transgenic luciferase activity (RLU/mg protein) fold change vs vehicle control (ratio); higher = more transgene expression
[4] = system: hAMSC donor 2; assay: as above
[5] = system: hAMSC donor 1; assay: transfection efficiency (EGFP+ cells / Hoechst count) fold change vs vehicle control (ratio); hAMSC are human adipose-derived mesenchymal stem cells given an EGFP-luciferase plasmid by lipofection; higher = enhanced transfection
[6] = system: hAMSC donor 2; assay: as above
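For Hoechst total cell count ratio vs vehicle control in this document: compound added 30 min before Lipofectamine 3000 lipoplex delivery, triplicate-well means expressed against DMSO vehicle control wells of the same 96-well plate.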
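For transfection efficiency (EGFP+ cells / Hoechst count) fold change vs vehicle control in this document: compounds added 30 min before Lipofectamine 3000 lipoplex transfection, triplicate means relative to DMSO vehicle wells on the same plate, luciferase RLU normalized to BCA total protein.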
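For transgenic luciferase activity (RLU/mg protein) fold change vs vehicle control in this document: compounds in DMSO added 30 min before Lipofectamine 3000 transfection of pEGFP-Luc in 96-well plates, values are means of triplicate wells over DMSO vehicle wells on the same plate.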

Structure (SMILES) | Hoechst total cell count ratio [1] | Hoechst total cell count ratio [2] | transgenic luciferase activity [3] | transgenic luciferase activity [4] | transfection efficiency [5] | transfection efficiency [6]
CCC(=O)OCC(=O)[C@@]1(OC(=O)CC)[C@@H](C)C[C@H]2[C@@H]3CCC4=CC(=O)C=C[C@]4(C)[C@@]3(Cl)[C@@H](O)C[C@@]21C [Beclomethasone dipropionate] | 0.94 ± 0.048 | 0.871 ± 0.13 | 12.1 ± 5.2 | 6.83 ± 2.1 | 1.81 ± 0.61 | 1.95 ± 0.39
O=c1[nH]cnc2c1ncn2[C@H]1CC[C@@H](CO)O1 [Didanosine] | 1.48 ± 0.33 | 0.976 ± 0.032 | 0.693 ± 0.26 | 0.775 ± 0.12 | 1.09 ± 0.53 | 1.34 ± 0.23
O=C1[C@H]2CCCC[C@H]2C(=O)N1CCCCN1CCN(c2nsc3ccccc23)CC1 [Perospirone hydrochloride] | 0.843 ± 0.083 | 0.515 ± 0.04 | 4.5 ± 2.6 | 2.38 ± 0.25 | 1.94 ± 0.1 | 2.8 ± 0.32
CC[N+](C)(CC)CCOC(=O)C(O)(c1ccccc1)C1CCCCC1 (stereo unspecified) [Oxyphenonium bromide] | 1.57 ± 0.31 | 0.976 ± 0.018 | 0.422 ± 0.032 | 0.655 ± 0.21 | 1.17 ± 0.07 | 0.902 ± 0.11
Cc1occc(=O)c1O [Maltol] | 1.3 ± 0.076 | 1.32 ± 0.096 | 1.05 ± 0.1 | 0.25 ± 0.16 | 0.786 ± 0.073 | 1.06 ± 0.092
COc1cc(C)nc(-n2nc(C)cc2OC)n1 [Mepirizole] | 1.52 ± 0.14 | 1.2 ± 0.24 | 1.21 ± 0.23 | 0.457 ± 0.28 | 0.575 ± 0.14 | 1.05 ± 0.35
CC[C@H](C)C(=O)O[C@H]1CCC=C2C=C[C@H](C)[C@H](CC[C@@H]3C[C@@H](O)CC(=O)O3)[C@H]21 [Mevastatin] | 0.657 ± 0.019 | 0.521 ± 0.058 | 0.339 ± 0.17 | 0.403 ± 0.092 | 3.21 ± 0.6 | 1.17 ± 0.27
CC(=O)OCC(=O)[C@@]1(O)CC[C@H]2[C@@H]3CCC4=CC(=O)CC[C@]4(C)[C@H]3C(=O)C[C@@]21C [Cortisone acetate] | 1.41 ± 0.17 | 1.01 ± 0.18 | 0.884 ± 0.21 | 0.625 ± 0.28 | 1.21 ± 0.082 | 1 ± 0.28
CC[C@H]1OC(=O)[C@H](C)[C@@H](O[C@H]2C[C@@](C)(OC)[C@@H](O)[C@H](C)O2)[C@H](C)[C@@H](O[C@@H]2O[C@H](C)C[C@H](N(C)C)[C@H]2O)[C@](C)(OC)C[C@@H](C)C(=O)[C@H](C)[C@@H](O)[C@]1(C)O [Clarithromycin] | 0.841 ± 0.053 | 0.775 ± 0.08 | 1.13 ± 0.54 | 0.591 ± 0.15 | 0.938 ± 0.24 | 0.576 ± 0.17
COc1ccnc(C[S+]([O-])c2nc3cc(OC(F)F)ccc3[nH]2)c1OC (stereo unspecified) [Pantoprazole sodium] | 1.48 ± 0.23 | 1.56 ± 0.23 | 0.801 ± 0.57 | 0.78 ± 0.12 | 0.808 ± 0.36 | 0.689 ± 0.17
CC(C)(C)NCC(O)COc1cccc2c1CC(O)C(O)C2 (stereo unspecified) [Nadolol] | 1.07 ± 0.049 | 1.45 ± 0.29 | 0.649 ± 0.095 | 0.737 ± 0.079 | 1.05 ± 0.019 | 0.793 ± 0.12
